From PubChem BioAssay AID1347073 (National Center for Advancing Translational Sciences (NCATS), 2019)
The whole screen tested about 45,000 compounds, of which about 200 (0.44%) were called active. Another 7% or so got no clear call; they are omitted. Calls follow the shape of the dose curve; as a rule, active = well fitted activation curve with a large enough effect; inconclusive = small, poorly fitted or top-dose-only effect; inactive = no such curve, though single readings can be large or run the other way. Some of the results follow.

Experiment: qHTS of TDP-43 Inhibitors: NCGC Sytravon Library Screen; also: 0% is about no effect; nearly all actives have a fitted effect of over 55% in size
Details: yeast TDP-43 toxicity rescue, BacTiter-Glo growth, 24 h; series mostly up to 46.1 µM; growth rescue (activation): at the top concentration
In short: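 TDP-43-expressing yeast, pregrown in raffinose, seeded at OD600 0.02 in galactose medium with compound for 24 hr at 30 deg C. Growth read by BacTiter-Glo luminescence, so rescue of toxicity appears as activation.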

| SMILES | growth rescue (activation) |
| --- | --- |
| Cc1ccccc1C(=O)NCCNC(=O)c1ccco1 | inactive: -5.83% |
| COc1ccc(-c2ccc(CCC(=O)O)n2NC(=O)c2ccc(C(C)(C)C)cc2)cc1 | inactive: 6.63% |
| CC1(C(=O)NCc2cccc3ccccc23)CCN1C(=O)Cc1ccc(-c2ccccc2)cc1 (centres undefined) | inactive: 24.7% |
| Cc1cc(NC(=O)CN2C(=O)NC3(CCCCC3)C2=O)ccc1N1CCCC1 | inactive: 2.08% |
| Cc1cccc(NC(=S)N2CCCCCC2)c1 | inactive: 16.6% |
| O=C(O)c1cccc(S(=O)(=O)N2CCC(n3nnc4cc(C(F)(F)F)ccc43)CC2)c1 | inactive: 2.14% |
| CSc1nsc(SC)c1NC(=O)N1CCCCC1 | inactive: -7.45% |
| C(=N\N(c1ccccc1)c1ccccc1)/c1ccccn1 | inactive: -9.22% |
| COc1ccc(CC(=O)Nc2sc3c(c2C(N)=O)CCCC3)cc1 | inactive: 11.9% |
| CC1(C(=O)OCC(=O)NC(=O)NCc2ccccc2)CC1(Cl)Cl (centres undefined) | inactive: 18.8% |
| Cc1ccnc(Nc2nc(-c3ccc(O)c(O)c3)cs2)c1 | inactive: 2.66% |
| COC(=O)c1cc(NC(=O)Cn2c(=O)oc3ccccc32)cc(C(=O)OC)c1 | inactive: 0.137% |
| COc1cc(/C=C/C(=O)OCC(=O)Nc2cc(S(=O)(=O)N3CCCC3)ccc2Cl)cc(OC)c1OC | inactive: 8.32% |
| O=C(O)C1C2CCC(O2)C1C(=O)Nc1ccc(OC(F)F)cc1 (centres undefined) | inactive: 1.95% |
| CCN1CCN(C(=O)c2c(-c3ccccc3)noc2C)CC1 | inactive: -5.61% |
| O=C(NCC(c1ccco1)S(=O)(=O)c1cccs1)c1ccc(Cl)cc1 (centres undefined) | inactive: 26.7% |
| CCC(=O)N1CCCC1(C)C(=O)Nc1ccc2nc(C)ccc2c1 (centres undefined) | inactive: 3.1% |
| COCCN(C(=O)c1csnn1)C(C(=O)NC1CCCC1)c1ccccc1F (centres undefined) | inactive: 9.19% |
| CN(C)c1cccc2c(/C=N/O)ccc(N(C)C)c12 | inactive: 0.413% |
| CC(=O)c1cccc(NC(=O)c2ccc(-c3c(C)noc3C)c3ccoc23)c1 | inactive: 9.84% |
| NC(=O)NOCc1c(F)cccc1Cl | inactive: 6.26% |
| Cc1sc2nc(CSc3cccc(C(F)(F)F)c3)[nH]c(=O)c2c1C | inactive: 14.1% |
| COc1ccc(C(=O)NC(C)c2cnn(-c3ccccn3)c2C)o1 (centres undefined) | inactive: 15% |

| SMILES | growth rescue (activation) |
| --- | --- |
| S=c1[nH]c2ccc3ccccc3c2[nH]1 | inactive: -8.35% |
| COc1ccc(CCNC(=O)COc2cccc(-n3cnnn3)c2)cc1 | inactive: 18.1% |
| CN1CCN(c2ccc(NC(=O)COc3ccc4ccccc4c3)cc2)CC1 | inactive: 11% |
| CCCC(C)NC(=S)NC(=O)c1cc(S(=O)(=O)N2CCOCC2)ccc1C (centres undefined) | inactive: 7.35% |
| COc1cccc(C(=O)NC(=S)Nc2nnn(C)n2)c1 | inactive: 5.76% |
| CCOC(=O)/C=C1\SCC(=O)N1CC(=O)N1CCOCC1 | inactive: -5.21% |
| COc1ccc(-c2cnc3c(NC(C)=O)cc(-c4cccc(C(=O)N(C)C)c4)cn23)cc1OC | inactive: 2.51% |
| Cc1ccc(OCC(=O)NCCNC(=O)c2cnccn2)cc1C | inactive: 16.7% |
| Cc1ccc(-c2cc(C(=O)N/N=C/c3ccccc3O)n[nH]2)o1 | inactive: -2.9% |
| Cc1ccc(S(=O)(=O)NCCn2cnc([N+](=O)[O-])n2)cc1 | inactive: 8.95% |
| CC(=O)c1ccc(N2CCN(C(=S)Nc3cc(C)ccc3C)CC2)cc1 | inactive: 29% |
| Cc1oc2cc3oc(=O)c(CC(=O)NCCC(=O)O)c(C)c3cc2c1C | inactive: -10.5% |
| Cn1ccc(C(=O)N/N=C/c2c[nH]c3ccccc23)n1 | inactive: -27.4% |
| COc1ccc2c(c1)cc(C(=O)N[C@@H](Cc1ccccc1)C(=O)N[C@@H](C)C(=O)O)n2C | inactive: -10.3% |
| COc1ccc(C=O)cc1OS(=O)(=O)c1ccccc1[N+](=O)[O-] | inactive: 6.42% |
| COc1ccc(C(=O)NN2C(=O)C3C(c4ccccc4)C=CC(c4ccccc4)C3C2=O)cc1 (centres undefined) | inactive: 7.82% |
| O=C(CN1C(=O)/C(=C2\SC(=S)N(CCS(=O)(=O)O)C2=O)c2ccccc21)Nc1cccc(Br)c1 | inactive: -16% |
| COc1cccc(/C=N/Nc2ccc([N+](=O)[O-])cn2)c1O | inactive: -39.6% |
| Cc1nnc(NC(=O)C(C)Sc2nnc(CCNC(=O)c3ccccc3F)n2C)s1 (centres undefined) | inactive: 9.07% |
| Cc1ccc2c(c1)C(c1ccccc1)N(C(=O)c1ccccc1[N+](=O)[O-])CC(=O)N2 (centres undefined) | inactive: 12.4% |
| CCCn1c(N)c(N(CCOC)C(=O)c2cccc(C(F)(F)F)c2)c(=O)[nH]c1=O | inactive: -13.9% |
| Cc1cc(C)c(OCCN2CC(C)OC(C)C2)c(Br)c1 (centres undefined) | inactive: -14.2% |
| Cc1ccc([N+](=O)[O-])c(OCc2ncc(Cl)n2C)c1 | inactive: 25.9% |

| SMILES | growth rescue (activation) |
| --- | --- |
| COc1ccc(C)cc1NC(=O)CCN1CC(C)OC(C)C1 (centres undefined) | inactive: 5.47% |
| COc1ccc(C(=O)Sc2nncc3ccccc23)cc1 | inactive: -9.76% |
| COC(=O)c1cc(OC)c(OC)cc1NC(=O)CCNC(=O)c1ccco1 | inactive: 5.8% |
| O=C(NN1C(=O)C2C(C1=O)C1C=CC2C12CC2)c1ccc(Cl)cc1 (centres undefined) | inactive: 4.59% |
| Cn1c(SCC(=O)Nc2ccccc2Cl)nnc1C1CC1 | inactive: -18.2% |
| O=C(Nc1cc(F)ccc1F)C1CCN(S(=O)(=O)c2cccc3nonc23)CC1 | inactive: 7.54% |
| CCC1CCc2c(sc(NC(=O)c3cccnc3)c2C(N)=O)C1 (centres undefined) | inactive: 11% |
| O=C(NS(=O)(=O)Oc1ccc(F)cc1F)OC[C@@H]1CCCN2CCCCC12 (some centres undefined) | inactive: -0.773% |
| Cc1cc(=O)n(-c2ccc(Cl)cc2)c(=O)[nH]1 | inactive: 12.6% |
| CCOC(=O)C1CCCN(c2c(NCCC(C)C)c(=O)c2=O)C1 (centres undefined) | inactive: -5.13% |
| C=CCNC(=O)Nc1ccc2nc(C)sc2c1 | inactive: -11.6% |
| CC(=O)C1=C(S(=O)(=O)c2ccc(C)cc2)CS(=O)(=O)C1 | inactive: 19.8% |
| Cc1cnc(NC(=O)C2COc3ccccc3O2)s1 (centres undefined) | inactive: 17.8% |
| Cc1ccc(-c2cc(-c3ccccc3)no2)c(O)c1 | inactive: 4.08% |
| O=C(OCc1ccccc1)/C(=C/c1cccc(Br)c1)NC(=O)c1ccco1 | inactive: 35.9% |
| Cc1c(C(=O)O)sc2[nH]c(=O)n(Cc3ccccc3)c(=O)c12 | inactive: -2.76% |
| O=C(N/N=C/c1cccc(O)c1)c1cc(C2CC2)nc2ccccc12 | inactive: 0.21% |
| O=C(COC(=O)c1ccco1)Nc1cc(S(=O)(=O)N2CCOCC2)ccc1Cl | inactive: 4.99% |
| CC(=O)Nc1ccc(NS(=O)(=O)c2cccc3nonc23)cc1 | inactive: 4.2% |
| CC(=O)c1ccc(NC(=O)c2cc(=O)[nH]c3ccccc23)cc1 | inactive: -0.0598% |
| CCOc1ccc(N2C(=O)/C(=C/c3ccccc3OCC(=O)OC)N(CC(=O)OC)C2=S)cc1 | inactive: 12.6% |
| COc1ccc(/C=C/c2cc(C(F)(F)F)[nH]c(=O)n2)cc1OC | inactive: 7.56% |
| Cc1ccc(NC(=S)N2CCC(NC(=O)C3CCCCC3)CC2)cc1C | inactive: -20.6% |
